# Measurements from patent publication US6034230A, “Nucleic acids encoding myocardial peptides” (priority 1999, dated 2000).
# Not every detail of the peptide structures is certain; ends, links or a residue may be inferred. No end group written: not given here.
# Tested on: Balb/c mice
# Assay: Oligodeoxynucleotides as immunostimulators: immunization with M7A-alpha peptide plus oligodeoxynucleotide, inflammatory heart disease at day 21
# Type: in vivo
sequence,measurement,setting,value
SLKLMATLFSTYASAD [mouse M7A-alpha],Severity of inflammatory heart disease (score),"Table 2, positive control: about 50 micrograms M7A-alpha with CFA, score scale of Example 1",3.8 ± 0.4
same,Prevalence of inflammatory heart disease,"Table 2, positive control: about 50 micrograms M7A-alpha with complete Freund's adjuvant (CFA)",5/5
